Starred links: 1 amine or outer side, 2 acyl side, 3 side chain; linkers in the order of their positions; H or OH if unused. Positions of bridges follow the written chain, without caps; N, C: chain ends. Non-standard residues stand in square brackets, D forms with d. Residues, ends and D or L forms follow the SMILES beside them. *: point of attachment. dAsp(3R-OH) = N[C@@H](C(=O)O)[C@@H](O)C(=O)O; Palmitoleoyl = CCCCCC/C=C\CCCCCCCC(=O)*; X1 = NC[C@H](O)[C@@H](N[*:1])C(=O)[*:2]; X2 = CCC(C)(O)[C@H](N[*:1])C(=O)[*:2]; d(aIle) = CC[C@H](C)[C@@H](N)C(=O)O; dOrn = NCCC[C@@H](N)C(=O)O; hSer = N[C@@H](CCO)C(=O)O
System: A. baumannii (ATCC 19606)

## Colistin [reference compound]
Surviving colony selected with 2
  change in MIC of the surviving strain: no changes in its MIC

## CCCCCC/C=C\CCCCCCCC(=O)N[C@H](CCCN)C(=O)N[C@@H](CO)C(=O)N[C@H](C(=O)N[C@@H](C(=O)N[C@@H](C(=O)N[C@@H]1C(=O)NCC(=O)N[C@@H](C(C)(O)CC)C(=O)N[C@H]([C@@H](C)CC)C(=O)N[C@@H](CCO)C(=O)N[C@@H](C)C(=O)N[C@H]([C@@H](C)CC)C(=O)N[C@@H](CCC(=O)O)C(=O)O[C@@H]1C)[C@@H](O)CN)[C@@H](O)C(=O)O)C(C)C (stereo partly drawn) [Compound 2, Turnercyclamycin B] (Palmitoleoyl-[dOrn]SV[dAsp(3R-OH)][X1]TG[X2][d(aIle)][hSer]A[d(aIle)]E; ester 6-C)
Mueller Hinton broth
  inoculum effect, starting cell density: ~104 CFU/mL
